In PubChem BioAssay AID485344 (National Center for Advancing Translational Sciences (NCATS), 2010) one finds inhibition data, which are given here for 59 molecules.

Screen size: about 340,000 compounds; about 6,900 (2%) were called active. No stated cut-off is given here; in the data, active means inhibition above about 30%; inactive means below that, where a call was filed. Only a part is listed here, and it is no random draw. Entries without a call were filed so in the source.

Sequence of UniProt P14416 (P14416 whole entry, looked up): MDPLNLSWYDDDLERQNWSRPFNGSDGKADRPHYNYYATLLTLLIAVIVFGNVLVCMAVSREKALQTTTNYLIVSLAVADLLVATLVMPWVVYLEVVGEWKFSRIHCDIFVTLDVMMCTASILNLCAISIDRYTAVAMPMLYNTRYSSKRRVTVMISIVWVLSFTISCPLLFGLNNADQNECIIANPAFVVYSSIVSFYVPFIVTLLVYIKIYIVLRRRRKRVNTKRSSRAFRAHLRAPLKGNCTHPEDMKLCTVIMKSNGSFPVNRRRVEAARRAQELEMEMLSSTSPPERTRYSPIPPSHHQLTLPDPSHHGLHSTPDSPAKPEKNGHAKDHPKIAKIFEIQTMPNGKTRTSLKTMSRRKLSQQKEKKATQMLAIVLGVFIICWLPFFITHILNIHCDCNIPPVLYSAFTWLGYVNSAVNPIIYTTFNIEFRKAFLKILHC

This assay concerns the target D(2) dopamine receptor (Homo sapiens) (UniProt P14416). Put plainly: HTS Assay for Allosteric Antagonists of the Human D2 Dopamine Receptor: Primary Screen for Antagonists. Further: 0% is about no effect. To be noted: HEK293 TREx D2 cells, calcium flux, dopamine EC80; at 10 µM; stronger effect = higher value. In outline:
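Dopamine at EC80 is the agonist stimulus; test compounds precede it by 180 s. Calcium flux read kinetically in a force-coupled, inducible HEK293 T-REx D2 cell line.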
On the technique in general: Calcium flux is commonly read through the fluorescence of an indicator in the cells.
As to `CCc1ccc(NC(=O)CC2C(=O)N(c3cccc(OC)c3)C(=O)N2C2CCCC2)cc1` (centres undefined), the inhibition is -3.55%.

Consider `Cc1ccc2c(c1)-c1ncc(C(=O)c3ccccc3O)cc1CO2`, for which the inhibition came out at 10.1%.

As to `Cc1cc(C)cc(NC(=O)CSc2nc(-c3ccccc3)c3cc(F)ccc3n2)c1`, the inhibition is -8.21%.

As for `Cc1ccc(C(=O)NC2=NC(c3ccc(C)cc3)CC(=O)N2)cc1` (centres undefined), the inhibition was -10.6%. As to `COc1ccc(-c2nc(SCC(=O)Nc3ccc4c(c3)OCCO4)c(-c3ccc(C)cc3)[nH]2)cc1OC`, the inhibition amounted to 23%. Consider `CC(C)NC(=O)c1nn(-c2ccccc2F)nc1CO`, for which the inhibition is -1.69%. Consider `COc1ccc(NC(=O)CSc2ccc3nc(-c4ccccc4)cn3n2)cc1OC`, for which the inhibition was determined as 9.6%.

As for `Cc1ccccc1Nc1c(-c2ccc(N3CCOCC3)cc2)nc2ccccn12`, the inhibition was 16.7%.

On to `Cc1ccc(CNC(=O)CN2C(=O)COc3ccc(S(=O)(=O)Nc4ccccc4)cc32)cc1`, for which the inhibition is -3.83%. The value for `CC(C)(C)OC(=O)N1CCC(c2nnc(SCc3cccc(Cl)c3)o2)CC1` was 5.91%; that for `Cc1ccc2nc3sc(C(=O)NCCCN(C)c4ccccc4)cc3cc2c1` was 7.23%; that for `COc1ccccc1CNC(=O)CCC1N=C2c3ccccc3N=C(SCc3ccc(C)cc3C)N2C1=O` (centres undefined) was -2.28%. With `COc1ccc(NC(=O)CN(c2cc(C)cc(C)c2)S(=O)(=O)c2c(C)noc2C)cc1Cl` the figure was -1.87%. With `Fc1cccc(-n2ncc3c2ncn2nc(Cc4ccccc4)nc32)c1` the figure was 7.81%. On to `O=C(Nc1ccc(Oc2ccccc2)cc1)C1CCN(S(=O)(=O)c2ccc(Cl)cc2)CC1`, for which the inhibition was determined as 0.651%. `CCOc1ccc(CCNC(=O)c2ccc3c(c2)c(C)c(C)n3Cc2ccccc2)cc1OCC`: the inhibition is 3.29%.

Turning to `Cc1ccc(S(=O)(=O)N2CCOCC2)cc1NC(=O)CNCc1cccnc1`, the inhibition is active: 59.7%. With `CC(=O)N1CCN(C(=O)c2ccc(Cl)c(S(=O)(=O)N3CCCCCC3)c2)CC1` the figure was active: 31.9%.

In the case of `COc1ccccc1NC(=O)CCCc1nnc2n(C)c(=O)c3sccc3n12`, the inhibition is -11.3%. In the case of `CCOC(=O)c1cc(S(=O)(=O)NCc2ccc(C)cc2)[nH]n1`, the inhibition was -5.92%. For the molecule `COc1ccc(CCN2C(=O)c3[nH]nc(-c4ccccc4O)c3C2c2ccc(OC)cc2)cc1` (centres undefined), the inhibition is 3.74%. For `O=S(=O)(c1ccc(Cl)cc1)c1nc(-c2ccco2)oc1SCc1ccc(F)cc1`, the inhibition is 0.694%. With `CCOc1ccc(NC(=O)CN(C)Cc2cc(=O)n3c(-c4ccccc4)csc3n2)cc1OCC` the figure was active: 40.6%; with `Cc1ccc(N=Cc2sc(O)c3ccccc23)c(C)c1`, active: 58.1%; with `Cc1ccc2c(CC(=O)Nc3c(C(=O)c4ccc(C)c(F)c4)oc4ccccc34)coc2c1`, 13.3%. On to `CCOc1ccc(NC(=O)c2cnc3ccccn3c2=O)cc1`, for which the inhibition stood at 3.1%. Turning to `COc1cc(C2CC(=O)Nc3c2c(C)nn3-c2nncc(-c3ccc(C)cc3)n2)cc(OC)c1OC` (centres undefined), the inhibition is -11.7%. For `CC(=O)c1ccc(NC(=O)c2cnn(-c3cccc(F)c3)c2-n2cccc2)cc1`, the inhibition was -3.39%. With `COc1ccc(S(=O)(=O)c2c(O)c3ccc(C(=O)NCc4ccc(F)cc4)cc3[nH]c2=O)cc1` the figure was -4.47%; with `Cc1ccc(CNC(=O)c2cc(C)nc3c2c(C)nn3-c2ccc(C)cc2)cc1`, 2.55%; with `CSc1ccc(CCNC(=O)CCn2c(=O)c3cccn3c3ccc(F)cc32)cc1`, -6.08%. The value for `CCOC(=O)c1c(NC(=O)c2cc3ccccc3c(=O)o2)sc2c1CCC(C)C2` (centres undefined) was -3.11%; that for `Cc1ccc(SCC(=O)Nc2ccc3oc(-c4ccccc4C)nc3c2)cc1` was 10.9%; that for `COc1ccc(-n2c(=O)c3ccccc3n(CC(=O)Nc3ccccc3OC)c2=O)cc1` was 0.82%. With `COc1cc(OC)cc(C(=O)Nc2cc3c(cc2N2CCCC2)n(C)c(=O)c(=O)n3C)c1`, the inhibition was -3.98%.

For `Cc1ccc(S(=O)(=O)n2nc(-c3ccccc3)nc2NCc2ccc(Cl)cc2)cc1`, the inhibition was found to be 8.7%. With `Cc1ccc([N+](=O)[O-])c(OCCN2CCC(Cc3ccccc3)CC2)c1` the figure was active: 68.3%; with `O=C(CSc1nc2c([nH]c3ccccc32)c(=O)n1-c1ccccc1)N1CCc2ccccc21`, -25.1%.

Consider `O=C1CC(c2nc(-c3ccc(Cl)cc3)no2)CN1c1ccc2c(c1)OCCO2` (centres undefined), for which the inhibition is 23.8%.

Consider `COc1ccc(C2C(=O)N(C3CCCCCC3)CC(=O)N2Cc2ccc(C)cc2)cc1` (centres undefined), for which the inhibition is -17.7%. With `CCc1ccc(NC(=O)[C@H](Cc2ccccc2)N2Cc3ccccc3C2=O)cc1`, the inhibition amounted to 4.33%. As for `CCOc1ccc(S(=O)(=O)c2c(C(=O)c3ccc(CC)cc3)cnc3ccc(C)cc23)cc1`, the inhibition is 5%. Regarding `CN(C)CCNC(=O)C1CCN(Cc2cc3ccccc3n2Cc2ccccc2)CC1`, the inhibition is -17.3%. With `COc1cc(NC(=O)CCc2c(C)nn(-c3ccc4nnc(C)n4n3)c2C)cc(OC)c1OC` the figure was 7.1%. Consider `CC(C)C[C@H]1C(=O)N2CCC[C@H]2[C@]2(O)O[C@](NC(=O)[C@@H]3C=C4c5cccc6[nH]c(Br)c(c56)CC4N(C)C3)(C(C)C)C(=O)N12` (some centres undefined), for which the inhibition is active: 94.1%. `CCCN(CCC)CCCNC(=O)c1cc2c(-c3ccc(OC)c(OC)c3)nn(C)c2s1`: the inhibition came out at 13.2%. Turning to `COc1ccccc1C(=O)NCC(c1cccnc1)N1CCc2ccccc2C1` (centres undefined), the inhibition is -4.6%. For the molecule `CCOC(=O)c1ccc(NC(=O)CSc2ccc3ccccc3n2)cc1`, the inhibition was -9.13%. Regarding `Cc1ccccc1-c1ccc(/C=C2/SC(N3CCOCC3)=NC2=O)o1`, the inhibition is active: 82.6%.

In the case of `Cc1cccc(N2CCN(C(=O)CN3C(=O)CSc4c3c(C)nn4-c3ccccc3)CC2)c1C`, the inhibition turned out to be 12%. The value for `CCCOC(=O)c1c(NC(=O)C(C)Sc2nc(-c3ccccc3)cc(C(F)(F)F)n2)sc(C(=O)N(C)C)c1C` (centres undefined) was -5.02%; that for `O=C1C(c2ccc(F)cc2)N(CCc2ccc(Cl)cc2)C(=O)CN1C1CCCCCC1` (centres undefined) was 18.5%; that for `COc1cc(NC(=O)CCC(=O)Nc2ccc3nc(N4CCOCC4)cc(C)c3c2)cc(OC)c1OC` was active: 30.9%. With `O=C(NCc1cccc(Br)c1)c1cnn(-c2ccc(F)cc2)c1-n1cccc1` the figure was 1.53%; with `CC(=O)c1ccc(NC(=O)c2cc(-c3ccc(C)s3)nc3ccccc23)cc1`, -1.84%. With `CCC(C)NC(=O)Cn1c(=O)n(CCCCCC(=O)NCc2ccccc2Cl)c(=O)c2sccc21` (centres undefined) the figure was 7.36%; with `O=C(CSc1nccn1-c1ccc(Cl)cc1)Nc1ccc(Cl)c(Cl)c1`, 4.38%; with `COc1cc(NC(=O)N2c3ccccc3Sc3ccccc32)cc(OC)c1`, -7.7%. Take `CCOC(=O)N1CCc2c(sc3c2c(=O)n(CCc2ccccc2)c(=O)n3CC(=O)Nc2ccc(C)cc2)C1`: the inhibition amounted to 12.9%.

One may read the inhibition as the relative decrease from the control value, in per cent.
